# According to PubChem BioAssay AID686970 (National Center for Advancing Translational Sciences (NCATS), 2013):
# About 6,000 (1.7%) of roughly 360,000 compounds were called active. The shares of active, inactive and inconclusive entries below differ from those in the screen. The call rests on the fitted dose curve; in most records, active means well fitted cell-killing curve with a large enough effect; inconclusive means small, poorly fitted or top-dose-only effect, or effect the other way; inactive means flat fitted curve, though single readings scatter. Potencies of inconclusive entries are left out as doubtful fits.
# Test: qHTS for induction of synthetic lethality in tumor cells producing 2HG: qHTS for the HT-1080-NT fibrosarcoma cell line;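 further: NT is the 2HG producing partner of a matched IDH1 knockdown line; nearly all actives have a fitted effect of over 55% in size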
# Conditions: HT-1080-NT fibrosarcoma viability, CellTiter-Glo ATP luminescence, 48 h; series mostly up to 46.1 µM
# In short: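 Read-out is CellTiter-Glo luminescence after 10 minutes at room temperature, following 48 hours' compound treatment of HT-1080-NT cells (750 cells/well, RPMI, 5% FBS, 37 degrees C).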
# Potency means the concentration at half of the fitted maximal effect; tags describe the fitted curve by direction and shape.
row,SMILES,Potency
1,CN1C(=O)C2(C(C#N)=C(N)Oc3n[nH]c(-c4ccc(Cl)cc4)c32)c2ccccc21 (centres undefined),inactive
2,Cn1cccc1C(=O)C(=O)Nc1ccccc1C(F)(F)F,"inconclusive [rising, single point]"
3,O=C(Nc1ccccc1)c1ccc(Cn2cc(C(F)(F)F)ccc2=O)cc1,"inconclusive [cytotoxic, partial curve]"
4,Cc1cc(NCc2ccccn2)n2ncc(-c3ccc(Cl)cc3)c2n1,"inconclusive [cytotoxic, partial curve]"
5,COc1ccc(-n2cc(CNCC3CCOCC3)c(-c3cccc(F)c3)n2)cc1,"inconclusive [cytotoxic, single point]"
6,COc1cc(C(=O)ON=C2C=C(C)C(=O)C(C)=C2)cc(OC)c1OC,inactive
7,C=CCOc1ccc(Cl)cc1-c1noc(-c2csc([C@H]3C[C@H](O)[C@@H](CO)O3)n2)n1,"inconclusive [cytotoxic, single point]"
8,COc1ccc(NC(=O)COC(=O)c2cc(OC)c(OC)cc2NC(=O)c2ccco2)cc1OC,"inconclusive [cytotoxic, single point]"
9,COc1cccc(/C=C2/CCC(CN(C)C)C2=O)c1 (centres undefined),"inconclusive [cytotoxic, single point]"
10,Cc1ccnc(NC(=O)Cc2ccc(-c3ccccc3)cc2)c1,"inconclusive [cytotoxic, single point]"
11,CCOC(=O)COc1ccc2ccccc2c1/C=C/[N+](=O)[O-],active: 7.31 µM
12,CC(C)(C)c1ccc(C(O)c2ncc(-c3ccc4ccccc4c3)[nH]2)cc1 (centres undefined),"inconclusive [cytotoxic, single point]"
13,Cc1ccc(-c2cnc3ccccc3n2)cc1C,inactive
14,Nc1nc2n[nH]nc2c(=O)[nH]1,"inconclusive [cytotoxic, full curve]"
15,CCCc1cc(=O)[nH]c(SCC(=O)Nc2cc(S(=O)(=O)N3CCOCC3)ccc2Cl)n1,"inconclusive [cytotoxic, single point]"
16,CC1(C)Cc2c(sc3nc(-c4cccs4)n(N)c(=O)c23)CO1,"inconclusive [cytotoxic, single point]"
17,O=C(/C=C/c1ccc([N+](=O)[O-])o1)NNC(=O)c1ccc(F)cc1,"inconclusive [cytotoxic, partial curve, poor fit]"
18,O=C(OCC(F)(F)F)c1cccc(COc2ccc3ccccc3c2)c1,inactive
19,Cc1ccc([N+](=O)[O-])cc1N=Nc1c(-c2ccc([N+](=O)[O-])cc2)[nH]n(C(N)=S)c1=O,"inconclusive [cytotoxic, partial curve, poor fit]"
20,CC(=O)Oc1ccc(N(C(C)=O)S(=O)(=O)c2ccccc2)c2ccccc12,"inconclusive [cytotoxic, single point]"
21,COC(c1ccccc1)c1nnc(CCC(=O)NCc2cccc(-n3cccn3)c2)o1 (centres undefined),inactive
22,Cc1cc(C)cc(C(=O)NC(=S)Nc2ccc(Cc3ccncc3)cc2)c1,"inconclusive [cytotoxic, single point]"

row,SMILES,Potency
1,COc1ccc(CC(=O)Nc2ccc(N3CCOCC3)cc2)cc1OC,"inconclusive [cytotoxic, single point]"
2,CN1C2CCC1/C(=C/c1cccn1C)C(=O)/C2=C\c1cccn1C,inactive
3,COc1ccccc1NC(=O)c1ccccc1NC(=O)c1cc(Cl)ccc1NC(=O)c1ccco1,inactive
4,COc1ccc(-c2cnc3c(NC(C)=O)cc(-c4cccc(C(=O)NCCN(C)C)c4)cn23)cc1OC,"inconclusive [cytotoxic, single point]"
5,CSc1cccc(NC(=O)CN(C)S(=O)(=O)c2ccc(C)cc2)c1,inactive
6,Cc1cc(O)c(/C=N/Nc2ccc(Cl)cc2)c(=O)o1,"inconclusive [cytotoxic, full curve, poor fit]"
7,CCN1CCN(C(=O)C(C)N(c2ccc(C)cc2)S(C)(=O)=O)CC1 (centres undefined),"inconclusive [rising, single point]"
8,O=C(CCn1cnnn1)Nc1ccc(Cl)c(Cl)c1,"inconclusive [cytotoxic, single point]"
9,CCc1nc2c(OCc3cc(Cl)cc(Cl)c3)cccn2c1N(C)C(=O)Nc1ccccc1OC,"inconclusive [cytotoxic, single point]"
10,COc1ccccc1NC(=O)N(Cc1cccs1)Cc1cc2cc3c(cc2[nH]c1=O)OCO3,"inconclusive [cytotoxic, single point]"
11,CCN(CC)c1cccc(OCC(=O)N2c3ccccc3CC2C)c1 (centres undefined),inactive
12,CN(C)CCNC(=O)c1csc(Nc2cccc3ccccc23)n1,"inconclusive [cytotoxic, single point]"
13,Cc1cnc(C(=O)NNC(=O)c2ccc(Br)cc2)cn1,"inconclusive [cytotoxic, partial curve]"
14,Cn1c(N)c(S(=O)(=O)c2ccc(Br)cc2)c2nc3ccccc3nc21,"inconclusive [cytotoxic, single point]"
15,CCCCN(C)C(=O)c1ccc(Nc2nc(C(N)Cc3ccc(C(F)(F)F)cc3)cs2)nc1 (centres undefined),"inconclusive [cytotoxic, single point]"
16,CC(=O)c1ccc(NC2=C(N3CCOCC3)C(=O)c3ccccc3C2=O)cc1,"inconclusive [cytotoxic, single point]"
17,C=CCn1c(-c2ccc(N)cc2)nc2ccccc21,inactive
18,CCOC(=O)C1CCN(c2ccc(C(N)=O)cc2[N+](=O)[O-])CC1,inactive
19,Nc1[nH]c(C(=O)c2ccccc2)c(-c2ccc(Cl)c(F)c2)c1C(=O)NCCc1c[nH]c2ccccc12,"inconclusive [cytotoxic, single point]"
20,Clc1ccc(-n2ncc3c(NCCN4CCOCC4)ncnc32)cc1,inactive
21,C/C(=N/NC(=O)c1cccs1)c1ccco1,inactive
22,O=C(OCc1c(F)cccc1Cl)c1cc([N+](=O)[O-])ccc1N1CCOCC1,inactive
